# In paper PMC12136788:
# The other results are listed elsewhere or left out.
# T1: UNK ZnF1-3 (human, UniProt Q9C0B0 31-174)
# T1 sequence: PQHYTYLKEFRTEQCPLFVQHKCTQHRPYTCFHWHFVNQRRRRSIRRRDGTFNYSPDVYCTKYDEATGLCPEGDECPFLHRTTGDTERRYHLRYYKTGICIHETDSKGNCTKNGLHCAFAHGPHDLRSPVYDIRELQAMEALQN
# B1: chr2:18084439:18084440:+_ENSMUSG00000026743_ENSMUST00000114669|mus_hu|FALSE|FALSE (ssRNA)
# RNA: GGGAGUUCUACAGUCCGACGAUCGAGCAAUGUAGGAGAUUUCUGCAGACUAGAGCUUGUUAUGCUUCCUGCAGCUGAUGCUACAGAUGAUGUUGGUGAAGCAGAAGAAACUGAGAGAUGAGAAACAUUCUCUUGAUUUUUGUUCAACAGAGGAUUGAGCAUCA
# B2: chr5:74638446:74638447:+_ENSG00000113161_ENST00000287936|hu_hu|motif|central (ssRNA)
# RNA: GGGAGUUCUACAGUCCGACGAUCAGGGAUGGGAGGCCACAAAGAGGCCAUGCAUUCGAAAAAGUCUUGACAACAUUGUAGCGGCAGAAUCCUUGGAUCCUCCAGAUCUCACUAGAGGCCACCGAACCCCGGCGCCGACGCUCACAACAGAGGAUUGAGCAUCA
# B3: chr8:104447970:104447971:+_ENSG00000164934_ENST00000297579|hu_hu|hu_hu_hu_mus_False|68_68 (ssRNA)
# RNA: GGGAGUUCUACAGUCCGACGAUCAUACACUUCCCUGCUUCGGCUCUUGUCCACAGGAAAGAUUCUAAUAGAUUUAUCAAAGCUGGCAGACACAAAUUCCUUCCCAGUGGGAGAGUAGUCCACAUCAAGUACUGCAGACACGUGCAACAGAGGAUUGAGCAUCA
# B4: chr15:103022988:103022989:-_ENSMUSG00000009575_ENSMUST00000118152|mus_mus|FALSE|FALSE (ssRNA)
# RNA: GGGAGUUCUACAGUCCGACGAUCCUGUCCUAGGUCAGCCUGGAAAAUGGAAGCAACAAUAUCAAUCCACACUACCAAGACAAUCAGCACAAGUCAUCCAUGAGAAUAGGACCUUAACUCCUGCCUGCAGAGAAAGACAUGAAGCAACAGAGGAUUGAGCAUCA
# B5: 68738906_68739026_1707_CDS_ENSMUSG00000022054_ENSMUST00000022638|mouse|control|control (ssRNA)
# RNA: GGGAGUUCUACAGUCCGACGAUCCUCCUUAGCUUCUGCUUCCUCUCCUUCACCUUCUGCCUCGGUUUCUCCUUCUUCUUCUUCCUGCUCACCUUCAUCUUUUUCACUGGAGCCUUCCUUCUCAGAUCCCCCCUCUUCUGCCUGCAACAGAGGAUUGAGCAUCA
# B6: chr17:65740002:65740003:+_ENSG00000130935_ENST00000581375|hu_hu|hu_hu_hu_mus_False|1_88 (ssRNA)
# RNA: GGGAGUUCUACAGUCCGACGAUCAACAAAUCUUUCUUCCCUGGACGCAAGAGUUCAUUCAUAUUAAAAAAAAUAUAUAUCCAUCAAGUUAGGUGUGGUGGCCACACCUUUACUCCCAGCACUUUGGGAGGUGGAUCCUCUAUUCAACAGAGGAUUGAGCAUCA
# B7: chr8:95500983:95500984:-_ENSG00000164944_ENST00000437199|hu_hu|hu_hu_hu_mus_True|18_58 (ssRNA)
# RNA: GGGAGUUCUACAGUCCGACGAUCAGAACACAUCUAUCGAGUAAAGGACCGUACAUGACGGCCUCUACCACUGCCUCCCACUAACAACUUUCCUCUCGAGCCUCCACUGCCGCUAUUUUGCACUAGCCAGGACGGUCCCAGGCCCAACAGAGGAUUGAGCAUCA
# B8: chr15:40462788:40462789:+_ENSG00000156970_ENST00000287598|hu_mus|motif|central (ssRNA)
# RNA: GGGAGUUCUACAGUCCGACGAUCAAAGCGGGGGUCAUUAUAAUAGCGCGUCUCUCCUUGGAGUGCUUCUAUCGCUCUCUCCACGGACGCUGACAUGUUACUCUCUUUCCCCCCUUGAGGGUAGUUCUGUUCUGUCCAAUUAAUCAACAGAGGAUUGAGCAUCA
# B9: chr3:179287964:179287965:+_ENSG00000136518_ENST00000429709|hu_hu|hu_hu_hu_mus_True|18_68 (ssRNA)
# RNA: GGGAGUUCUACAGUCCGACGAUCCUUGAGUGGUGAGAUGGCCUCCAUGUUCUCCCUGGGCACGCGGAGAGCAUUAGUGUCUAUGUAGUAGGUGGGCCCGCCCUGCUUGCCUUUGUCGCCAUCUAUUUCCAUCAUUGUACUUCCCAACAGAGGAUUGAGCAUCA
# B10: 39934136_39934256_631_CDS_ENSG00000183337_ENST00000397354|human|control|control (ssRNA)
# RNA: GGGAGUUCUACAGUCCGACGAUCUCCAGGCGGUGUUUUGUAUAUAGCACUGAAGCCAUUUGGGGGUUUUCCAGAGACGGCAGAAGCCUCCACUGUCUCGGGUGUAUUCGGUUUGAACUGCAUCUCUGGAUUUCUUUCCGAAGACAACAGAGGAUUGAGCAUCA
# B11: chrX:91785444:91785445:-_ENSMUSG00000025151_ENSMUST00000026142|mus_hu|FALSE|FALSE (ssRNA)
# RNA: GGGAGUUCUACAGUCCGACGAUCAUUGGCAUUGAGAGACUGAGAGAAAUUGUAGGUGGCAUUUGGGCCCACUUUAGUAGUGGCAUUCUGGGCCUUGAAGGCCAUCUCAGACUUGUUAGCAGCUAACUCACCAGUGGUUGCUGCCAACAGAGGAUUGAGCAUCA
# B12: chr1:153634984:153634985:-_ENSG00000143621_ENST00000361891|hu_hu|FALSE|FALSE (ssRNA)
# RNA: GGGAGUUCUACAGUCCGACGAUCUUCCUCUCCUUCCUUCUUCUCUGGUGGCUUCUCAUAAGCCUUUUCUGAAGGUGUUACUAUCACUCCAUCCCAGGUAGAUAUUUCAGAAGCAAGAUAGCUGGCAUCACCCUCCUGGCCAAGCAACAGAGGAUUGAGCAUCA
# B13: chr12:88580095:88580096:-_ENSMUSG00000021038_ENSMUST00000072744|mus_mus|motif|central (ssRNA)
# RNA: GGGAGUUCUACAGUCCGACGAUCACGUGCUGAAGCAGAUGGCUCACCACCUGGACAGUGUGCAGGUGUCAGAGGGACCCGGUAUCCCUCACACGUCCCUACACAAAGUUGACAGGGACAGUGCCGUGACAGCAGGUAGAUACUCAACAGAGGAUUGAGCAUCA
# B14: chr2:9570881:9570882:+_ENSG00000119203_ENST00000238112|hu_mus|hu_hu_hu_mus_False|18_58 (ssRNA)
# RNA: GGGAGUUCUACAGUCCGACGAUCACUUGUCUUCUGAAGGAACCAGGGCAGGGCUCCACAGUGAUCCAAAUGGAAAUGACUAAUUAACAGAAGGUCGAUCUCAGCUGGGUCGAUAAGAUCAAUAUAAGGAAGGGCAUCCAUUCCCAACAGAGGAUUGAGCAUCA
# Biological target: T1, UNK ZnF1-3
# Experiment: nsRBNS (natural sequence RNA bind-n-seq); RBNS binding buffer (assumed for nsRBNS): 25 mM Tris pH 7.5, 150 mM KCl, 3 mM MgCl2, 0.01% Triton X-100, 500 ug/ml BSA, 20 U/ml SUPERase-In, 4 C; UNK is unkempt and MSI1 is Musashi-1; names of the RNAs are library labels; protein concentration not given here; high values mean tight binding
row,Binder,binding signal
1,B1,0.977 enrichment R
2,B2,1.14 enrichment R
3,B3,1.31 enrichment R
4,B4,1.46 enrichment R
5,B5,0.321 enrichment R
6,B6,1.1 enrichment R
7,B7,1.04 enrichment R
8,B8,0.314 enrichment R
9,B9,0.663 enrichment R
10,B10,0.426 enrichment R
11,B11,1.05 enrichment R
12,B12,1.16 enrichment R
13,B13,0.632 enrichment R
14,B14,1.14 enrichment R
